Results taken from publication PMC12136788.
The other results are listed elsewhere or left out.

B1: chr3:49657245:49657349:+|CDS|ENSG00000164061|unk|FALSE|unique (ssRNA)
RNA: GGGAGUUCUACAGUCCGACGAUCCAGCCGUAGUGGCAUCAAGAAGCGGCACUCCAUGCCACGCCUGCGGGAUGCCUGUGAGCUAGAGUCUGGGACUGAGCCCUGUGUGGUCAGGAGGAUUGCCGACAGCAGCGUGCAGACAGACAACAGAGGAUUGAGCAUCA
B2: chr6:125978377:125978478:+|3pUTR|ENSG00000111911|unk|total|mutant (ssRNA)
RNA: GGGAGUUCUACAGUCCGACGAUCAAUUUUGCCUCUAAUAACAUAAAGGGGGAAGAAACAUAAAGUGGUUCUCUUAAUAAAACCCGCAGAAAAUGUUGCUUUAUGGCAUGUUUUUGUAUCAAAGAGAAAUCAGAGGUUAAACUUCAACAGAGGAUUGAGCAUCA
B3: chr2:40113585:40113686:-|3pUTR|ENSG00000183023|msi1|total|mutant (ssRNA)
RNA: GGGAGUUCUACAGUCCGACGAUCUCAUUUUAUUUUUUUACUUAAAAGGCUAUUUUGAGCCCUGUUUCUUUCACUGUCCAGUCCCGUCCUCUUUGAUUAUAUCAGCCGUUGCUGAGUAAGAAAGAAGCCAGGGUGACCAACGGGCAACAGAGGAUUGAGCAUCA
B4: ENSG00000100393:stop:overlap|stop_codon|ENSG00000100393|stop_codon|NA|stop_codon (ssRNA)
RNA: GGGAGUUCUACAGUCCGACGAUCUCAGCACCGAUAACUCAGACUUGAAUUCAAACCUCUCACAGAGUACACUAGACAUACACUAGAGACACCUUGUAGUAUUUUGGGAGCAAAAAAAUUAUUUUCUCUUAACAAGACUUUUUGCAACAGAGGAUUGAGCAUCA
B5: chr10:78035461:78035635:+|CDS|ENSG00000138326|unk|total|mutant (ssRNA)
RNA: GGGAGUUCUACAGUCCGACGAUCCAUUGAUGUCCUUCACCCCGGGAAGGCGACAGUGCCUAAGACAGAAAUUCGGGAAAAACCCGCCAAAAUGUACAAGACCACACCGGAUGUCAUCUUUGUAUUUGGAUUCAGAACUCAUUUCAACAGAGGAUUGAGCAUCA
B6: chr7:93926053:93926159:+|CDS|ENSG00000127920|unk|total|mutant (ssRNA)
RNA: GGGAGUUCUACAGUCCGACGAUCGUCUAAAUGUUCUGAAGAAAUAAAGAACUAUAUUGAAGAACGUUCUGGAGAGGAUCCUCCCGUAAAGGGAAUUCCAGAAGACAAGAACCCCUUUAAAGAAAAAGGCAGCUGUGUUAUUUCCAACAGAGGAUUGAGCAUCA
B7: ENSG00000198589:be:win_5201|CDS|ENSG00000198589|bound_else_gene|NA|bound_elsewhere_windowed (ssRNA)
RNA: GGGAGUUCUACAGUCCGACGAUCCAGUCUCACCUUCCACCUUUAAUACAAGCAUACCUACCAAUGCUGUCAGUGUGGUUUCCUCAGUAGAUUCAGCCCAAGCCUCAGAUAUGGGAGGAGAAUCACCAGGCAGUAGAUCAUCUACAACAGAGGAUUGAGCAUCA
B8: chr1:27823432:27823533:+|3pUTR|ENSG00000117758|unk|FALSE|unique (ssRNA)
RNA: GGGAGUUCUACAGUCCGACGAUCUUUCAAUAAAAUUACUGUCUUGUAAUAUAAAUGUUGUCCACUUCCCUUUUCCACAGGCCUAGAACAGUUAAAGGGAACAUAAUUUGUUUAGGCUCCCACAUAAAUGUGAAUCUGGCCAACCAACAGAGGAUUGAGCAUCA
B9: chr1:205790044:205790145:-|3pUTR|ENSG00000133065|msi1|total|mutant (ssRNA)
RNA: GGGAGUUCUACAGUCCGACGAUCAGAUUCUUCUGCCUCUUUCUCCUUUCCAGACCCCUACUCUGUGCAGUGCUGACCACAGCCCGAGCCACCGCCCCAUUGCUCAACCAGUAUUUAUUUCCCUAAACGACCCUUCCUCACAUUCAACAGAGGAUUGAGCAUCA
B10: chr12:32745429:32745530:+|3pUTR|ENSG00000087470|msi1|FALSE|unique (ssRNA)
RNA: GGGAGUUCUACAGUCCGACGAUCCAACGGAAAGAGAAAAGCCUUCCUUUGUUGGCCCUUAAACUGAGUCAAGAUCUGAAAUGUAGAGAUGAUCUCUGACGAUACCUGUAUGUUCUUAUUGUGUAAAUAAAAUUGCUGGUAUGACAACAGAGGAUUGAGCAUCA
B11: ENSG00000107863:be:win_851|CDS|ENSG00000107863|bound_else_gene|NA|bound_elsewhere_windowed (ssRNA)
RNA: GGGAGUUCUACAGUCCGACGAUCUGUUAUCCAAUAGAAACAACCAUACAGGUCCUUCACAUAGAACUGAAGAAGUGAGGUAUGGCGUGAGUGAGCAGACCUCUUUAAAAACAGUGUCAAGAACCACAUCACCACCAUUAUCAACAACAGAGGAUUGAGCAUCA
B12: chr1:114567884:114567985:-|3pUTR|ENSG00000116752|msi1|total|mutant (ssRNA)
RNA: GGGAGUUCUACAGUCCGACGAUCUGGUAAUUCUAUUUGUAUAUCUCAACAGAAUUAAAAUGUCCCGCUUGGUGGUAUUUUUACCGCCAUAAAAGAAAAUCUUCCGGCUUUCAAAAUAAGGAUGACUUCCGAAUAAUAUUGUGUCAACAGAGGAUUGAGCAUCA
B13: chr12:123662440:123662541:+|3pUTR|ENSG00000111358|unk|FALSE|unique (ssRNA)
RNA: GGGAGUUCUACAGUCCGACGAUCAAUGGAAAUCACAAUUUUAAGUCUAGGAAAUAAAGUAUUAUAUAUACUUUCAAACAAGCUAGCAAGGCUUUUAUUAUUACUUUUUUAUUUGAAAUAUCUUAUAUAUUUGGUUAGUUCUGUCAACAGAGGAUUGAGCAUCA
B14: chr11:27368498:27368690:-|CDS|ENSG00000205213|msi1|total|mutant (ssRNA)
RNA: GGGAGUUCUACAGUCCGACGAUCACCCCUUUGUUUGCCAUUUCCUACAGGUGAAACGCCAUCAUCCGGAUUCACUGUAACGUCCGUGCUAUUAAACUCACCCGCAUUUUUAUUAAUGGCCGUUAUCUACACUAAACUAUACUGCAACAGAGGAUUGAGCAUCA

target: MSI1 full-length (mouse, UniProt Q61474 1-362); test: nsRBNS (natural sequence RNA bind-n-seq); RBNS binding buffer (assumed for nsRBNS): 25 mM Tris pH 7.5, 150 mM KCl, 3 mM MgCl2, 0.01% Triton X-100, 500 ug/ml BSA, 20 U/ml SUPERase-In, 4 C; UNK is unkempt and MSI1 is Musashi-1; names of the RNAs are library labels; protein concentration not given here; high values mean tight binding
Chain of UniProt Q61474 (Q61474 whole entry): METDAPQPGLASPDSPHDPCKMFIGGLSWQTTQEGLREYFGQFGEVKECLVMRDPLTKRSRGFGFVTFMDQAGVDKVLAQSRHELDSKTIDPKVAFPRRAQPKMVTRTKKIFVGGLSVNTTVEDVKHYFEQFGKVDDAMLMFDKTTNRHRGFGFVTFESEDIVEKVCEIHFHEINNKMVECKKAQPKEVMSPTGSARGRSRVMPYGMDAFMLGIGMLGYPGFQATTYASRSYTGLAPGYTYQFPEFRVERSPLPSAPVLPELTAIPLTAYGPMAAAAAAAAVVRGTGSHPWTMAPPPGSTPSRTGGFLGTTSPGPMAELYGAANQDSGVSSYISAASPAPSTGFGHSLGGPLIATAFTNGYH

Row | Binder | binding signal [enrichment R]
1 | B1 | 0.478
2 | B2 | 0.246
3 | B3 | 0.413
4 | B4 | 0.393
5 | B5 | 0.343
6 | B6 | 0.282
7 | B7 | 2.3
8 | B8 | 0.461
9 | B9 | 1.25
10 | B10 | 0.326
11 | B11 | 0.875
12 | B12 | 0.304
13 | B13 | 12.8
14 | B14 | 0.49
